Laboratory results: publication PMC4344513
Positions count from the first letter of the chain named. These are yes or no findings as the source states them, for the method shown. In cells and extracts the contact can be indirect. Some entries that bind do so weakly or less than the wild type. Tags and fused reporters may be left off the sequences shown.

By UniProt entry, the sequences of proteins in these tests, tags left out.
UniProt P49005: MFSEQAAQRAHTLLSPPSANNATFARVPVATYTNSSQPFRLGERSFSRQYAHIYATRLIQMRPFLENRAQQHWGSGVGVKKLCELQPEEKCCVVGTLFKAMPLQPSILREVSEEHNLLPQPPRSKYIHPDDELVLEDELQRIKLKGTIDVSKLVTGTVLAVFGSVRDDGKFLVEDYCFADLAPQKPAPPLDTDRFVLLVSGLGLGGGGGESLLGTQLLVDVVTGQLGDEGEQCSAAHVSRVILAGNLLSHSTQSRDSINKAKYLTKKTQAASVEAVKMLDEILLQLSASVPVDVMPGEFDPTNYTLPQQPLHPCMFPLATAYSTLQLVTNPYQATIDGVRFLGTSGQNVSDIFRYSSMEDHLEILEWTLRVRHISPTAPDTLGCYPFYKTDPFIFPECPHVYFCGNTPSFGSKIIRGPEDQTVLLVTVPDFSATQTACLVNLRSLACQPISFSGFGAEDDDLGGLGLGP

Legend:
[1] = biological target: T1, His-GST-Polη_(393–511) (human) (UniProt Q9Y253); experiment: pull-down; His-GST fusions (125 μg) immobilised on Dynabeads His-Tag, mixed with 35 μl POLD2 TnT reaction in 0.75x Buffer 1 (3.25-mM NaPO4 pH 7.4, 70-mM NaCl, 0.01% Tween20), 1.5 h, 4°C; only the target purified
T1 sequence: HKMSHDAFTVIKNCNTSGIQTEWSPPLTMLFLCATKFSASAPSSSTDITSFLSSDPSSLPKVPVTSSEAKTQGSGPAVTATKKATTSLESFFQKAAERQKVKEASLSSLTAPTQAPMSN

[2] = biological target: T2, His-GST-Polη_(393–511)(F1*) (human) (UniProt Q9Y253); experiment: as above
T2 sequence: T1 sequence with F91A, F92A

- binding [1]: binds
- binding [2]: no binding
Substance: in vitro translated POLD2 (from UniProt P49005 1-469)
